Paper PMC9087378 (Immunity, 2021)

Biological target: Full length recombinant Plasmodium falciparum circumsporozoite protein (rPfCSP), biotinylated (Plasmodium falciparum NF54/3D7, biotin (BirA enzymatic reaction))
Assay: flow cytometry on cells

B1: iGL-CIS43 B cell receptor on peripheral B cells of H^iGL-CIS43κ^iGL-CIS43 knock-in mice (receptor)
VH: QVQLVQSGAEVKKPGASVKVSCKASGYTFTSYAMHWVRQAPGQRLEWMGWINAGNGNTKYSQKFQGRVTITRDTSASTAYMELSSLRSEDTAVYYCALLTVVTPDDAFDIWGQGTMVTVSS
VL: [about 100 residues omitted]FGGGTKVEIK
binding result: binds
